Test results from a collection of fitness landscapes (doi:10.1126/science.1257360).
The list shows a part of the results.

B1: PhoQ; a variant is named by its letters at X, in order, P23837 (parent)
chain: MKKLLRLFFPLSLRVRFLLATAAVVLVLSLAYGMVALIGYSVSFDKTTFRLLRGESNLFYTLAKWENNKLHVELPENIDKQSPTMTLIYDENGQLLWAQRDVPWLMKMIQPDWLKSNGFHEIEADVNDTSLLLSGDHSIQQQLQEVREDDDDAEMTHSVAVNVYPATSRMPKLTIVVVDTIPVELKSSYMVWSWFIYVLSANLLLVIPLLWVAAWWSLRPIEALAKEVRELEEHNRELLNPATTRELTSLVRNLNRLLKSERERYDKYRTTLTDLTHSLKTPLXXLQXXLRSLRSEKMSVSDAEPVMLEQISRISQQIGYYLHRASMRGGTLLSRELHPVAPLLDNLTSALNKVYQRKGVNISLDISPEISFVGEQNDFVEVMGNVLDNACKYCLEFVEISARQTDEHLYIVVEDDGPGIPLSKREVIFDRGQRVDTLRPGQGVGLAVAREITEQYEGKIVAGESMLGGARMEVIFGRQHSAPKDE

Variants of: B1
Test: enrichment ratio after two sorts for PhoP signalling (ratio (wild type AVST 3.29)); higher = more functional
Details: with PhoP (E. coli)
Work on KGRL yielded an enrichment ratio of at most 0.25. Variant AFHN has an enrichment ratio of at most 0.25. Work on WNWY yielded an enrichment ratio of at most 0.25. In the case of MQYN, the enrichment ratio is reported as 8.1. With TAPH the enrichment ratio was at most 0.25. HTYD showed an enrichment ratio of at most 0.25. ENYE gave an enrichment ratio of at most 0.25. With GGIT the enrichment ratio was at most 0.25. Work on YDFR yielded an enrichment ratio of at most 0.25. FYSK gave an enrichment ratio of at most 0.25. PMQL showed an enrichment ratio of at most 0.25. Variant FMLY has an enrichment ratio of at most 0.25. Work on RRLQ yielded an enrichment ratio of at most 0.25. For FSVM, the enrichment ratio was 8.94. HHAE was tested, and the enrichment ratio was at most 0.25. Variant KGVF has an enrichment ratio of at most 0.25. VWME gave an enrichment ratio of at most 0.25. QMGE showed an enrichment ratio of 96.1. Work on LETH yielded an enrichment ratio of at most 0.25. For MHTL, the enrichment ratio was at most 0.25. For EGSD, the enrichment ratio was at most 0.25. QREH was tested, and the enrichment ratio was at most 0.25. Variant WICR has an enrichment ratio of at most 0.25. Work on RVPW yielded an enrichment ratio of at most 0.25. Work on PTTG yielded an enrichment ratio of at most 0.25. PTIR was tested, and the enrichment ratio was at most 0.25. RTIR was tested, and the enrichment ratio was at most 0.25. For TVKR, the enrichment ratio was at most 0.25. For GPYG, the enrichment ratio was at most 0.25. IQGG gave an enrichment ratio of at most 0.25. Work on AFYW yielded an enrichment ratio of at most 0.25. Variant EGSV has an enrichment ratio of at most 0.25. Work on WDYW yielded an enrichment ratio of at most 0.25. In the case of LVFN, the enrichment ratio is reported as at most 0.25. LMHH gave an enrichment ratio of at most 0.25. With RPWS the enrichment ratio was at most 0.25. For FKRN, the enrichment ratio was at most 0.25. Work on PCQF yielded an enrichment ratio of at most 0.25. Work on GDPG yielded an enrichment ratio of at most 0.25. Work on HYDP yielded an enrichment ratio of 0.484. PGRF was tested, and the enrichment ratio was at most 0.25. For QTEH, the enrichment ratio was at most 0.25. EDLD gave an enrichment ratio of at most 0.25. Variant FSIC has an enrichment ratio of at most 0.25. SWIM gave an enrichment ratio of at most 0.25. FPIY was tested, and the enrichment ratio was at most 0.25. Work on IIGF yielded an enrichment ratio of at most 0.25. Variant SGDK has an enrichment ratio of at most 0.25. Work on RDFK yielded an enrichment ratio of at most 0.25. For DMTG, the enrichment ratio was at most 0.25. DVMK gave an enrichment ratio of at most 0.25. LLEG was tested, and the enrichment ratio was at most 0.25. KQAG was tested, and the enrichment ratio was at most 0.25. NNHH was tested, and the enrichment ratio was at most 0.25. Work on YNFR yielded an enrichment ratio of at most 0.25. Work on SYNL yielded an enrichment ratio of at most 0.25. In the case of WFAW, the enrichment ratio is reported as at most 0.25. In the case of CPLR, the enrichment ratio is reported as at most 0.25. RDHY showed an enrichment ratio of at most 0.25. For LFKM, the enrichment ratio was at most 0.25. VKLT gave an enrichment ratio of at most 0.25. Variant VWML has an enrichment ratio of at most 0.25. QPDK showed an enrichment ratio of at most 0.25. YYEC was tested, and the enrichment ratio was at most 0.25. In the case of ARVR, the enrichment ratio is reported as at most 0.25. TWIS was tested, and the enrichment ratio was at most 0.25. For HMAG, the enrichment ratio was at most 0.25. With DANM the enrichment ratio was at most 0.25. With HWHG the enrichment ratio was at most 0.25. VVAG was tested, and the enrichment ratio was at most 0.25. ERDM showed an enrichment ratio of at most 0.25. Variant FNVE has an enrichment ratio of at most 0.25. QHDR was tested, and the enrichment ratio was at most 0.25. Work on MLMM yielded an enrichment ratio of at most 0.25. With KGDY the enrichment ratio was at most 0.25. VRMQ showed an enrichment ratio of at most 0.25. In the case of PLEQ, the enrichment ratio is reported as at most 0.25. Variant ARYT has an enrichment ratio of at most 0.25. In the case of RPGL, the enrichment ratio is reported as at most 0.25. ACIV was tested, and the enrichment ratio was 0.927. HFPY showed an enrichment ratio of at most 0.25. In the case of LCWT, the enrichment ratio is reported as at most 0.25. For NIFW, the enrichment ratio was at most 0.25. Work on VTTC yielded an enrichment ratio of at most 0.25. Variant RYNN has an enrichment ratio of at most 0.25. For DRTQ, the enrichment ratio was at most 0.25. Variant IQQC has an enrichment ratio of at most 0.25. YKPV was tested, and the enrichment ratio was at most 0.25. In the case of KSEL, the enrichment ratio is reported as at most 0.25. With TDVK the enrichment ratio was at most 0.25. KLDS showed an enrichment ratio of at most 0.25. Variant ENSC has an enrichment ratio of at most 0.25. In the case of GRHR, the enrichment ratio is reported as at most 0.25. FSTS was tested, and the enrichment ratio was at most 0.25. Variant ISMV has an enrichment ratio of 7.06. With IFAR the enrichment ratio was at most 0.25. FCNL was tested, and the enrichment ratio was at most 0.25. For FDFF, the enrichment ratio was at most 0.25. WVYE showed an enrichment ratio of at most 0.25. With TYYW the enrichment ratio was at most 0.25. PSHE showed an enrichment ratio of at most 0.25. Work on PCGM yielded an enrichment ratio of at most 0.25. GHQT gave an enrichment ratio of at most 0.25. RVKP showed an enrichment ratio of at most 0.25. NVLC showed an enrichment ratio of at most 0.25. SNAH showed an enrichment ratio of 9.84. Work on RATM yielded an enrichment ratio of at most 0.25. Variant DFTQ has an enrichment ratio of 0.858. With TRHV the enrichment ratio was at most 0.25. ICID gave an enrichment ratio of at most 0.25. RMED was tested, and the enrichment ratio was at most 0.25. For FTSQ, the enrichment ratio was at most 0.25. Work on HLDD yielded an enrichment ratio of at most 0.25. Work on WTWG yielded an enrichment ratio of at most 0.25. For LPQC, the enrichment ratio was at most 0.25. WHAV was tested, and the enrichment ratio was at most 0.25. SADP was tested, and the enrichment ratio was at most 0.25. KGHR gave an enrichment ratio of at most 0.25. Work on AMPE yielded an enrichment ratio of at most 0.25. In the case of NKDP, the enrichment ratio is reported as at most 0.25. LPSI showed an enrichment ratio of at most 0.25. With SEVM the enrichment ratio was 18.7. In the case of YDEL, the enrichment ratio is reported as at most 0.25. YRKL was tested, and the enrichment ratio was at most 0.25. AKRS was tested, and the enrichment ratio was at most 0.25. Work on VDRM yielded an enrichment ratio of at most 0.25. In the case of KFRM, the enrichment ratio is reported as at most 0.25. IDNC was tested, and the enrichment ratio was at most 0.25. Work on KHDM yielded an enrichment ratio of at most 0.25. SCYA showed an enrichment ratio of at most 0.25. Work on NWYQ yielded an enrichment ratio of at most 0.25. KMLM gave an enrichment ratio of at most 0.25. In the case of FYGR, the enrichment ratio is reported as at most 0.25. With EAFD the enrichment ratio was at most 0.25. With QTIR the enrichment ratio was at most 0.25. For ICIA, the enrichment ratio was at most 0.25. Work on RMDE yielded an enrichment ratio of at most 0.25. In the case of KNFY, the enrichment ratio is reported as at most 0.25. Variant TSVA has an enrichment ratio of 3.47. For NVLK, the enrichment ratio was at most 0.25. Work on NFWE yielded an enrichment ratio of at most 0.25. Variant HENK has an enrichment ratio of at most 0.25. With AQTM the enrichment ratio was 3.65. SHCI gave an enrichment ratio of 6.63. In the case of SHCM, the enrichment ratio is reported as 10.8. WQFE showed an enrichment ratio of at most 0.25. For KYVS, the enrichment ratio was at most 0.25. Work on WCPK yielded an enrichment ratio of at most 0.25. In the case of WRPM, the enrichment ratio is reported as at most 0.25. KYRL gave an enrichment ratio of at most 0.25. VFTT showed an enrichment ratio of at most 0.25. HQGQ was tested, and the enrichment ratio was at most 0.25. Work on ISRM yielded an enrichment ratio of at most 0.25. YCCP was tested, and the enrichment ratio was at most 0.25. YGDG showed an enrichment ratio of at most 0.25. With YYFS the enrichment ratio was at most 0.25. EDQS gave an enrichment ratio of at most 0.25. For TELE, the enrichment ratio was 11.2. For WHTD, the enrichment ratio was at most 0.25. VHQL was tested, and the enrichment ratio was at most 0.25. In the case of WVMY, the enrichment ratio is reported as at most 0.25. For TMPF, the enrichment ratio was at most 0.25. NRSR gave an enrichment ratio of at most 0.25. In the case of FTHH, the enrichment ratio is reported as at most 0.25. MFSI gave an enrichment ratio of at most 0.25. In the case of YHMP, the enrichment ratio is reported as at most 0.25. Variant ASYT has an enrichment ratio of at most 0.25. EYTE gave an enrichment ratio of at most 0.25. For IDGD, the enrichment ratio was at most 0.25. Variant FTVW has an enrichment ratio of at most 0.25. For KTFY, the enrichment ratio was at most 0.25. VCWV was tested, and the enrichment ratio was at most 0.25. With PCEV the enrichment ratio was at most 0.25. With YNAP the enrichment ratio was at most 0.25. DYPA gave an enrichment ratio of at most 0.25. For LVDD, the enrichment ratio was at most 0.25. With PMLK the enrichment ratio was at most 0.25. MVSV gave an enrichment ratio of at most 0.25. With NFIP the enrichment ratio was at most 0.25. For FCML, the enrichment ratio was 21.1. FRDI gave an enrichment ratio of at most 0.25. For CFVY, the enrichment ratio was at most 0.25. Variant NDHP has an enrichment ratio of at most 0.25. QHYG showed an enrichment ratio of at most 0.25. For HNMN, the enrichment ratio was at most 0.25. For IFWL, the enrichment ratio was at most 0.25. KQVV showed an enrichment ratio of at most 0.25. AEST gave an enrichment ratio of 18.4. Variant ICVL has an enrichment ratio of at most 0.25. ASTC gave an enrichment ratio of 5.39. With RDVF the enrichment ratio was at most 0.25. For SGYD, the enrichment ratio was at most 0.25. For IRCG, the enrichment ratio was at most 0.25. Work on WLFD yielded an enrichment ratio of at most 0.25. Work on ADIW yielded an enrichment ratio of at most 0.25.
